Test results from US8592455B2 (priority 2008, dated 2013).

Test system: KMS11 cells
Assay: cells
Settings: Homo sapiens, KMS-11, 72 h, read-out: KMS11-lluc EC50

| SMILES | EC50 |
| --- | --- |
| C[C@H]1CN(c2ccncc2NC(=O)c2ccc(F)c(-c3ccccc3F)n2)C[C@@H](N)[C@@H]1O [Example 25, N-(4-((3R,4R,5S)-3-amino-4-hydroxy-5-methylpiperidin-1-yl)pyridin-3-yl)-5-fluoro-6-(2-fluorophenyl)picolinamide] | 370 nM |
| C[C@@H]1C[C@H](N)C[C@H](c2ccncc2NC(=O)c2ccc(F)c(C3CCCCC3)n2)C1 (stereo in doubt) [Example 91, N-(4-(3-amino-5-methylcyclohexyl)pyridin-3-yl)-6-cyclohexyl-5-fluoropicolinamide] | 2900 nM |
| N[C@H]1CCC[C@@H](c2ccncc2NC(=O)c2ccc(F)c(-c3cc(F)cc(F)c3F)n2)C1 [Example 14, N-(4-((1R,3S)-3-aminocyclohexyl)pyridin-3-yl)-5-fluoro-6-(2,3,5-trifluorophenyl)picolinamide] | 8500 nM |
| C[C@H]1CN(c2ccncc2NC(=O)c2ccc(F)c(-c3cccnc3)n2)C[C@@H](N)[C@@H]1O [Example 118, N-(4-((3R,4R,5S)-3-amino-4-hydroxy-5-methylpiperidin-1-yl)pyridin-3-yl)-3-fluoro-2,3′-bipyridine-6-carboxamide] | 4600 nM |
| Cc1ccc(F)c(-c2cccc(C(=O)Nc3cnccc3N3C[C@@H](N)[C@H](O)[C@@H](C)C3)n2)c1F [Example 13, N-(4-((3R,4R,5S)-3-amino-4-hydroxy-5-methylpiperidin-1-yl)pyridin-3-yl)-6-(2,6-difluoro-3-methylphenyl)picolinamide] | 670 nM |
| C[C@H]1C[C@@H](c2ccncc2NC(=O)c2ccc(F)c(-c3c(F)cc(O)cc3F)n2)C[C@@H](N)[C@@H]1O [Example 4, N-(4-((1R,3R,4R,5S)-3-amino-4-hydroxy-5-methylcyclohexyl)pyridin-3-yl)-6-(2,6-difluoro-4-hydroxyphenyl)-5-fluoropicolinamide] | 1300 nM |
| C[C@H]1C[C@@H](c2ccncc2NC(=O)c2ccc(F)c(-c3cc(O)ccc3F)n2)C[C@@H](N)[C@@H]1O [Example 5, N-(4-((1R,3R,4R,5S)-3-amino-4-hydroxy-5-methylcyclohexyl)pyridin-3-yl)-5-fluoro-6-(2-fluoro-5-hydroxyphenyl)picolinamide] | 4800 nM |
| N[C@H]1CCC[C@@H](c2ccncc2NC(=O)c2ccc(F)c(-c3c(F)ccc(O)c3F)n2)C1 [Example 124, N-(4-((1R,3S)-3-aminocyclohexyl)pyridin-3-yl)-6-(2,6-difluoro-3-hydroxyphenyl)-5-fluoropicolinamide] | 780 nM |
| N[C@H]1CCC[C@@H](c2ccncc2NC(=O)c2cccc(-c3c(F)cc(O)cc3F)n2)C1 [Example 8, N-(4-((1R,3S)-3-aminocyclohexyl)pyridin-3-yl)-6-(2,6-difluoro-4-hydroxyphenyl)picolinamide] | 510 nM |
| CCCOc1ccc(F)c(-c2nc(C(=O)Nc3cnccc3[C@@H]3CC[C@H](O)[C@H](N)C3)c(N)cc2F)c1 [Example 67, 3-amino-N-(4-((1R,3R,4S)-3-amino-4-hydroxycyclohexyl)pyridin-3-yl)-5-fluoro-6-(2-fluoro-5-propoxyphenyl)picolinamide] | 1200 nM |
| C[C@@H]1C[C@H](N)C[C@H](c2ccncc2NC(=O)c2cccc(-c3ccccc3F)n2)C1 [Example 62, N-(4-((1R,3S,5S)-3-amino-5-methylcyclohexyl)pyridin-3-yl)-6-(2-fluorophenyl)picolinamide] | 2400 nM |
| CCc1ccc(F)c(-c2cccc(C(=O)Nc3cnccc3[C@H]3C[C@@H](N)[C@H](O)[C@@H](C)C3)n2)c1F [Example 15, N-(4-((1R,3R,4R,5S)-3-amino-4-hydroxy-5-methylcyclohexyl)pyridin-3-yl)-6-(3-ethyl-2,6-difluorophenyl)picolinamide] | 5500 nM |
| Cc1ccc(F)c(-c2cccc(C(=O)Nc3cnccc3[C@@H]3CCC[C@H](N)C3)n2)c1F [Example 28, N-(4-((1R,3S)-3-aminocyclohexyl)pyridin-3-yl)-6-(2,6-difluoro-3-methylphenyl)picolinamide] | 2200 nM |
| COc1ccc(F)c(-c2nc(C(=O)Nc3cnccc3[C@H]3C[C@@H](N)[C@H](O)[C@@H](C)C3)ccc2F)c1F [Example 47, N-(4-((1R,3R,4R,5S)-3-amino-4-hydroxy-5-methylcyclohexyl)pyridin-3-yl)-6-(2,6-difluoro-3-methoxyphenyl)-5-fluoropicolinamide] | 1300 nM |
| C[C@@H]1C[C@H](N)C[C@H](c2ccncc2NC(=O)c2ccc(F)c(-c3c(F)ccc(O)c3F)n2)C1 [Example 125, N-(4-((1R,3S,5S)-3-amino-5-methylcyclohexyl)pyridin-3-yl)-6-(2,6-difluoro-3-hydroxyphenyl)-5-fluoropicolinamide] | 410 nM |
| C[C@@H]1C[C@H](N)C[C@H](c2ccncc2NC(=O)c2ccc(F)c(-c3c(F)ccc(F)c3F)n2)C1 [Example 129, N-(4-((1R,3S,5S)-3-amino-5-methylcyclohexyl)pyridin-3-yl)-5-fluoro-6-(2,3,6-trifluorophenyl)picolinamide] | 1200 nM |
| CCc1ccc(F)c(-c2cccc(C(=O)Nc3cnccc3[C@@H]3C[C@H](C)C[C@H](N)C3)n2)c1F [Example 21, N-(4-((1R,3S,5S)-3-amino-5-methylcyclohexyl)pyridin-3-yl)-6-(3-ethyl-2,6-difluorophenyl)picolinamide] | 3300 nM |

| SMILES | EC50 |
| --- | --- |
| Nc1ccc(-c2c(F)cccc2F)nc1C(=O)Nc1cnccc1C1=CC(N)CCC1 (stereo not drawn) [Example 107, 3-amino-N-(4-(3-aminocyclohex-1-enyl)pyridin-3-yl)-6-(2,6-difluorophenyl)picolinamide] | 930 nM |
| N[C@H]1CCC[C@@H](c2ccncc2NC(=O)c2nc(-c3c(F)cccc3F)ccc2F)C1 [Example 80, N-(4-((1R,3S)-3-aminocyclohexyl)pyridin-3-yl)-6-(2,6-difluorophenyl)-3-fluoropicolinamide] | 7900 nM |
| N[C@H]1CCC[C@@H](c2ccncc2NC(=O)c2ccc(F)c(-c3cc(O)ccc3F)n2)C1 [Example 33, N-(4-((1R,3S)-3-aminocyclohexyl)pyridin-3-yl)-5-fluoro-6-(2-fluoro-5-hydroxyphenyl)picolinamide] | 1400 nM |
| C[C@H]1CN(c2ccncc2NC(=O)c2ccc(F)c(-c3ccncc3)n2)C[C@@H](N)[C@@H]1O [Example 120, N-(4-((3R,4R,5S)-3-amino-4-hydroxy-5-methylpiperidin-1-yl)pyridin-3-yl)-3-fluoro-2,4′-bipyridine-6-carboxamide] | 8500 nM |
| N[C@H]1CCC[C@@H](c2ccncc2NC(=O)c2ccc(F)c(-c3ccc(O)cc3F)n2)C1 [Example 9, N-(4-((1R,3S)-3-aminocyclohexyl)pyridin-3-yl)-5-fluoro-6-(2-fluoro-4-hydroxyphenyl)picolinamide] | 1600 nM |
| CCCOc1ccc(F)c(-c2nc(C(=O)Nc3cnccc3[C@@H]3CC[C@H](O)[C@H](N)C3)ccc2F)c1 [Example 64, N-(4-((1R,3R,4S)-3-amino-4-hydroxycyclohexyl)pyridin-3-yl)-5-fluoro-6-(2-fluoro-5-propoxyphenyl)picolinamide] | 5600 nM |
| C[C@@H]1C[C@H](N)C[C@H](c2ccncc2NC(=O)c2cccc(-c3c(F)cccc3F)n2)C1 [Example 63, N-(4-((1R,3S,5S)-3-amino-5-methylcyclohexyl)pyridin-3-yl)-6-(2,6-difluorophenyl)picolinamide] | 530 nM |
| Cc1ccc(F)c(-c2nc(C(=O)Nc3cnccc3[C@@H]3C[C@H](C)C[C@H](N)C3)ccc2F)c1F [Example 27, N-(4-((1R,3S,5S)-3-amino-5-methylcyclohexyl)pyridin-3-yl)-6-(2,6-difluoro-3-methylphenyl)-5-fluoropicolinamide] | 950 nM |
| C[C@H]1C[C@@H](c2ccncc2NC(=O)c2nc(-c3c(F)cccc3F)c(F)cc2N)C[C@@H](N)[C@@H]1O (stereo in doubt) [Example 130, 3-amino-N-(4-(3-amino-4-hydroxy-5-methylcyclohexyl)pyridin-3-yl)-6-(2,6-difluorophenyl)-5-fluoropicolinamide] | 1000 nM |
| C[C@H]1CN(c2ccncc2NC(=O)c2nc(-c3c(F)cccc3F)ccc2F)C[C@@H](N)[C@@H]1O [Example 24, N-(4-((3R,4R,5S)-3-amino-4-hydroxy-5-methylpiperidin-1-yl)pyridin-3-yl)-6-(2,6-difluorophenyl)-3-fluoropicolinamide] | 620 nM |
| N[C@H]1CCC[C@@H](c2ccncc2NC(=O)c2ccc(F)c(-c3c(F)cc(O)cc3F)n2)C1 [Example 32, N-(4-((1R,3S)-3-aminocyclohexyl)pyridin-3-yl)-6-(2,6-difluoro-4-hydroxyphenyl)-5-fluoropicolinamide] | 390 nM |
| Cc1ccc(F)c(-c2nc(C(=O)Nc3cnccc3N3C[C@@H](N)[C@H](O)[C@@H](C)C3)ccc2F)c1F [Example 22, N-(4-((3R,4R,5S)-3-amino-4-hydroxy-5-methylpiperidin-1-yl)pyridin-3-yl)-6-(2,6-difluoro-3-methylphenyl)-5-fluoropicolinamide] | 210 nM |
| CC1(C)C[C@H](N)C[C@H](c2ccncc2NC(=O)c2ccc(F)c(-c3c(F)cc(O)cc3F)n2)C1 [Example 122, N-(4-((1R,5R)-5-amino-3,3-dimethylcyclohexyl)pyridin-3-yl)-6-(2,6-difluoro-4-hydroxyphenyl)-5-fluoropicolinamide] | 230 nM |
| N[C@H]1CCC[C@@H](c2ccncc2NC(=O)c2ccc(F)c(-c3ccc(F)cc3F)n2)C1 [Example 82, N-(4-((1R,3S)-3-aminocyclohexyl)pyridin-3-yl)-6-(2,4-difluorophenyl)-5-fluoropicolinamide] | > 10000 nM |
| Nc1cc(F)c(-c2ccncc2F)nc1C(=O)Nc1cnccc1[C@@H]1CCC[C@H](N)C1 [Example 136, 5-amino-N-(4-((1R,3S)-3-aminocyclohexyl)pyridin-3-yl)-3,3′-difluoro-2,4′-bipyridine-6-carboxamide] | 6400 nM |
| C[C@@H]1C[C@H](N)C[C@H](c2ccncc2NC(=O)c2cccc(-c3cc(O)ccc3F)n2)C1 [Example 35, N-(4-((1R,3S,5S)-3-amino-5-methylcyclohexyl)pyridin-3-yl)-6-(2-fluoro-5-hydroxyphenyl)picolinamide] | 670 nM |
